Laboratory results published in the supplement of paper PMC10126150.
Values marked as one replicate rest on one cluster of the flow cell; about a third of the high ones do not repeat.
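Also: ATP exposure 15 min at 22 °C before imaging.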

The sequences below were run on ATP (assay: switch fluorescence ratio, 500 uM ATP over buffer (Cy3 cluster intensity, sum of 5 cycles each) (fold (ratio)); higher = stronger signal-on switching upon ATP binding; sequences stand for … in TCGTCGGCAGCGTCAGATGTGTATAAGAGACAGTTTTTTTTTTTTTTTTTTTTTTTTT…TC). Conditions: aptamer strand: ATP DNA aptamer (quencher-CACCTGGGGGAGTATTGCGGAGGAAGG + anchor), 100 nM annealed; ATP concentration: 500 uM; one replicate.
Method in brief: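 Clusters with intensities outside 100-1000 RFU were excluded. The remaining Cy3-labelled switching-strand clusters on a modified Illumina MiSeq flow-cell had been annealed to 100 nM quencher-labelled ATP aptamer and imaged in selection buffer, then after 15 min with 500 uM ATP at 22 °C, for five cycles separated by NaOH stripping and re-annealing. The fluorescence ratio, averaged per switch-domain sequence, is each cluster's summed target-cycle Cy3 intensity over its summed buffer-cycle Cy3 intensity.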
CTTATGAAGT was tested, and the switch fluorescence ratio was 0.945.
CTTATGGCCG was tested, and the switch fluorescence ratio was 0.954.
For CTTATGGCTA, the switch fluorescence ratio was 0.946.
CTTATGGTCA was tested, and the switch fluorescence ratio was 0.981.
Sequence CTTATTAAGA has a switch fluorescence ratio of 1.05.
CTTATTGAG showed a switch fluorescence ratio of 1.03.
CTTCAATCGA was tested, and the switch fluorescence ratio was 0.998.
Sequence CTTCAATGAT has a switch fluorescence ratio of 1.01.
For CTTCACTTGC, the switch fluorescence ratio was 1.05.
CTTCAGGATG was tested, and the switch fluorescence ratio was 1.01.
For CTTCATAATT, the switch fluorescence ratio was 1.04.
Work on CTTCCGGCTT yielded a switch fluorescence ratio of 1.12.
In the case of CTTCCGTCGT, the switch fluorescence ratio is reported as 1.45.
Sequence CTTCCTGGAG has a switch fluorescence ratio of 1.3.
CTTCGGTTGA showed a switch fluorescence ratio of 0.98.
Work on CTTCGGTTTG yielded a switch fluorescence ratio of 1.18.
CTTCGTCTCC showed a switch fluorescence ratio of 1.57.
Work on CTTCTAGCAT yielded a switch fluorescence ratio of 1.73.
CTTCTCTCAA gave a switch fluorescence ratio of 1.36.
For CTTCTCTTA, the switch fluorescence ratio was 0.963.
CTTCTGGGTG gave a switch fluorescence ratio of 1.07.
For CTTCTTTACT, the switch fluorescence ratio was 0.997.
CTTGAAACCC was tested, and the switch fluorescence ratio was 1.02.
In the case of CTTGAAGATA, the switch fluorescence ratio is reported as 1.03.
With CTTGAATGAA the switch fluorescence ratio was 0.966.
With CTTGACTCAC the switch fluorescence ratio was 1.19.
CTTGACTCCC gave a switch fluorescence ratio of 1.55.
CTTGACTCGT gave a switch fluorescence ratio of 1.
CTTGAGCGTC gave a switch fluorescence ratio of 1.05.
Work on CTTGAGGACG yielded a switch fluorescence ratio of 1.14.
CTTGATCTTA gave a switch fluorescence ratio of 0.933.
CTTGATTACT gave a switch fluorescence ratio of 1.02.
CTTGATTAGA gave a switch fluorescence ratio of 0.963.
CTTGCAAGG was tested, and the switch fluorescence ratio was 1.01.
Sequence CTTGCCGTGA has a switch fluorescence ratio of 0.988.
In the case of CTTGCCTAGT, the switch fluorescence ratio is reported as 0.942.
In the case of CTTGCCTCCC, the switch fluorescence ratio is reported as 1.69.
CTTGCGGGAA showed a switch fluorescence ratio of 0.988.
CTTGCGGGGT was tested, and the switch fluorescence ratio was 1.04.
CTTGCTTTTC was tested, and the switch fluorescence ratio was 1.
In the case of CTTGGACGAA, the switch fluorescence ratio is reported as 0.952.
Sequence CTTGGATAAA has a switch fluorescence ratio of 0.997.
For CTTGGATATC, the switch fluorescence ratio was 0.996.
CTTGGCAGCC gave a switch fluorescence ratio of 0.998.
In the case of CTTGGCCCAA, the switch fluorescence ratio is reported as 1.02.
For CTTGGCTGCA, the switch fluorescence ratio was 1.02.
Sequence CTTGGGGGTA has a switch fluorescence ratio of 0.984.
CTTGGGTGA gave a switch fluorescence ratio of 1.03.
For CTTGGGTGTC, the switch fluorescence ratio was 1.03.
CTTGGTATTT was tested, and the switch fluorescence ratio was 0.984.
CTTGGTCCGG was tested, and the switch fluorescence ratio was 1.03.
Work on CTTGGTCGAA yielded a switch fluorescence ratio of 0.945.
CTTGGTTGGC was tested, and the switch fluorescence ratio was 0.979.
Sequence CTTGTAAGCC has a switch fluorescence ratio of 1.02.
For CTTGTGATCC, the switch fluorescence ratio was 1.01.
In the case of CTTGTGCATA, the switch fluorescence ratio is reported as 1.14.
CTTGTGGAT was tested, and the switch fluorescence ratio was 0.994.
CTTGTTAATT was tested, and the switch fluorescence ratio was 0.989.
CTTGTTACTT gave a switch fluorescence ratio of 0.991.
CTTGTTCAC gave a switch fluorescence ratio of 0.983.
For CTTGTTTTAG, the switch fluorescence ratio was 0.956.
With CTTTAACTTA the switch fluorescence ratio was 1.
CTTTAATATA was tested, and the switch fluorescence ratio was 1.01.
CTTTACCCCT gave a switch fluorescence ratio of 2.07.
CTTTACCTTG was tested, and the switch fluorescence ratio was 0.983.
CTTTAGACTT gave a switch fluorescence ratio of 0.997.
With CTTTAGCCCT the switch fluorescence ratio was 0.979.
CTTTATATCA gave a switch fluorescence ratio of 0.949.
CTTTATCTGC was tested, and the switch fluorescence ratio was 1.01.
With CTTTATCTTA the switch fluorescence ratio was 0.984.
Work on CTTTCAGTCT yielded a switch fluorescence ratio of 0.987.
With CTTTCATGTA the switch fluorescence ratio was 1.05.
With CTTTCCGGAA the switch fluorescence ratio was 1.92.
CTTTCCGTTA showed a switch fluorescence ratio of 1.23.
CTTTCGTCGG was tested, and the switch fluorescence ratio was 0.974.
Sequence CTTTGACGTC has a switch fluorescence ratio of 1.02.
CTTTGATCAT was tested, and the switch fluorescence ratio was 1.01.
With CTTTGCCACA the switch fluorescence ratio was 1.08.
CTTTGGACTT showed a switch fluorescence ratio of 1.02.
With CTTTGGCGTG the switch fluorescence ratio was 1.03.
CTTTGTTGTA gave a switch fluorescence ratio of 0.973.
CTTTTCCTTC showed a switch fluorescence ratio of 1.78.
With CTTTTCGACC the switch fluorescence ratio was 1.11.
Work on CTTTTCGGAA yielded a switch fluorescence ratio of 1.06.
For CTTTTGAGGT, the switch fluorescence ratio was 0.997.
With CTTTTGTGGC the switch fluorescence ratio was 1.05.
In the case of CTTTTTCTGT, the switch fluorescence ratio is reported as 1.01.
Work on CTTTTTTATA yielded a switch fluorescence ratio of 0.98.
CTTTTTTTA was tested, and the switch fluorescence ratio was 1.01.
In the case of GAAAAAAGAA, the switch fluorescence ratio is reported as 0.974.
In the case of GAAAAACGGG, the switch fluorescence ratio is reported as 0.979.
GAAAAAGCCT gave a switch fluorescence ratio of 1.37.
GAAAACAGGA gave a switch fluorescence ratio of 1.02.
GAAAAGGCAA showed a switch fluorescence ratio of 2.06.
GAAACAGG was tested, and the switch fluorescence ratio was 1.05.
With GAAACGTATG the switch fluorescence ratio was 0.987.
Sequence GAAACGTCCG has a switch fluorescence ratio of 1.02.
GAAACTTTTG was tested, and the switch fluorescence ratio was 1.
Sequence GAAAGAAAAT has a switch fluorescence ratio of 1.03.
Sequence GAAAGAAGAA has a switch fluorescence ratio of 0.994.
For GAAAGAATCA, the switch fluorescence ratio was 0.987.
GAAAGACCAG was tested, and the switch fluorescence ratio was 1.02.
Sequence GAAAGCCGCA has a switch fluorescence ratio of 1.08.
GAAAGCTTC was tested, and the switch fluorescence ratio was 1.48.
Work on GAAAGGGACG yielded a switch fluorescence ratio of 1.1.
With GAAAGGGGCG the switch fluorescence ratio was 1.02.
GAAAGGTCGT gave a switch fluorescence ratio of 1.01.
Sequence GAAATAATTA has a switch fluorescence ratio of 0.991.
Work on GAAATACGCG yielded a switch fluorescence ratio of 1.02.
For GAAATAGAGT, the switch fluorescence ratio was 1.46.
GAAATAGGAG gave a switch fluorescence ratio of 1.03.
Work on GAAATAGTAG yielded a switch fluorescence ratio of 0.968.
Work on GAAATAGTTC yielded a switch fluorescence ratio of 1.02.
In the case of GAAATCTGGG, the switch fluorescence ratio is reported as 0.943.
GAAATCTTAG showed a switch fluorescence ratio of 1.01.
GAAATCTTGT showed a switch fluorescence ratio of 1.02.
Work on GAAATGAACT yielded a switch fluorescence ratio of 1.
In the case of GAAATGAAGC, the switch fluorescence ratio is reported as 1.01.
GAAATGAATT was tested, and the switch fluorescence ratio was 0.969.
Work on GAAATGAGTG yielded a switch fluorescence ratio of 1.02.
For GAAATGGTTT, the switch fluorescence ratio was 1.02.
GAAATGTCAA was tested, and the switch fluorescence ratio was 0.969.
GAAATTCAGG was tested, and the switch fluorescence ratio was 0.98.
With GAAATTCGCT the switch fluorescence ratio was 1.02.
GAACAACTGA gave a switch fluorescence ratio of 0.965.
In the case of GAACAAGATA, the switch fluorescence ratio is reported as 1.03.
Sequence GAACAGAGCG has a switch fluorescence ratio of 1.02.
For GAACAGCATG, the switch fluorescence ratio was 0.95.
For GAACAGGTTT, the switch fluorescence ratio was 1.
GAACCAGGAT gave a switch fluorescence ratio of 1.13.
GAACCATTTA showed a switch fluorescence ratio of 1.03.
GAACCATTTG gave a switch fluorescence ratio of 1.01.
Work on GAACCTGGGC yielded a switch fluorescence ratio of 1.03.
With GAACCTTTCT the switch fluorescence ratio was 3.03.
GAACGATTCC showed a switch fluorescence ratio of 1.21.
With GAACGGGGTT the switch fluorescence ratio was 0.986.
Sequence GAACGGTGCT has a switch fluorescence ratio of 1.02.
With GAACGGTTTT the switch fluorescence ratio was 1.03.
For GAACTAAATA, the switch fluorescence ratio was 1.06.
GAACTAAGGG was tested, and the switch fluorescence ratio was 0.997.
GAACTAATGG was tested, and the switch fluorescence ratio was 0.998.
GAACTAGA showed a switch fluorescence ratio of 1.04.
GAACTAGTC gave a switch fluorescence ratio of 0.92.
GAACTGTCTT showed a switch fluorescence ratio of 0.967.
In the case of GAACTTGTCC, the switch fluorescence ratio is reported as 1.
In the case of GAAGAAATTT, the switch fluorescence ratio is reported as 1.01.
GAAGAAGTTT showed a switch fluorescence ratio of 0.987.
GAAGAATACG was tested, and the switch fluorescence ratio was 1.03.
Work on GAAGAATCGC yielded a switch fluorescence ratio of 1.03.
GAAGACAATA gave a switch fluorescence ratio of 1.37.
For GAAGATGGGA, the switch fluorescence ratio was 0.988.
GAAGCAGGT was tested, and the switch fluorescence ratio was 1.02.
In the case of GAAGCATGCC, the switch fluorescence ratio is reported as 1.14.
GAAGCCAAAG showed a switch fluorescence ratio of 0.996.
Sequence GAAGCCGCGG has a switch fluorescence ratio of 0.923.
In the case of GAAGCGAGTC, the switch fluorescence ratio is reported as 1.28.
GAAGCGTGAC showed a switch fluorescence ratio of 2.06.
With GAAGGCTAAC the switch fluorescence ratio was 1.04.
Sequence GAAGGGGCTC has a switch fluorescence ratio of 0.993.
GAAGGGTAAG gave a switch fluorescence ratio of 0.999.
Sequence GAAGGGTGTC has a switch fluorescence ratio of 1.03.
GAAGGGTTTT showed a switch fluorescence ratio of 0.998.
GAAGGTCTCG showed a switch fluorescence ratio of 0.992.
For GAAGTAATGT, the switch fluorescence ratio was 0.986.
GAAGTAGTTG showed a switch fluorescence ratio of 1.
GAAGTATCAT showed a switch fluorescence ratio of 1.02.
GAAGTCAGCG was tested, and the switch fluorescence ratio was 0.966.
GAAGTCATGT was tested, and the switch fluorescence ratio was 0.992.
For GAAGTGGTGC, the switch fluorescence ratio was 1.12.
Work on GAAGTGGTTC yielded a switch fluorescence ratio of 0.99.
For GAAGTTAAAT, the switch fluorescence ratio was 1.01.
GAAGTTTTTA showed a switch fluorescence ratio of 0.981.
GAATAAAAGT showed a switch fluorescence ratio of 0.952.
In the case of GAATAAGGAT, the switch fluorescence ratio is reported as 1.02.
With GAATAAGGTG the switch fluorescence ratio was 1.28.
For GAATAAGTG, the switch fluorescence ratio was 1.03.
GAATAAGTGC gave a switch fluorescence ratio of 1.03.
Sequence GAATAAGTTC has a switch fluorescence ratio of 0.992.
GAATACCAAT showed a switch fluorescence ratio of 0.973.
GAATACTCGT gave a switch fluorescence ratio of 1.02.
With GAATAGGGGT the switch fluorescence ratio was 1.
Work on GAATATACAT yielded a switch fluorescence ratio of 1.01.
GAATATTATC was tested, and the switch fluorescence ratio was 1.01.
In the case of GAATATTTCC, the switch fluorescence ratio is reported as 1.06.
In the case of GAATCAGAGT, the switch fluorescence ratio is reported as 0.99.
For GAATCGTGAC, the switch fluorescence ratio was 1.04.
GAATCTACGC was tested, and the switch fluorescence ratio was 1.12.
Work on GAATCTGCCA yielded a switch fluorescence ratio of 1.05.
With GAATCTGGCT the switch fluorescence ratio was 1.02.
Work on GAATGAGCGG yielded a switch fluorescence ratio of 1.02.
In the case of GAATGAGTCA, the switch fluorescence ratio is reported as 0.976.
GAATGAGTTT gave a switch fluorescence ratio of 0.979.
GAATGCCCGG was tested, and the switch fluorescence ratio was 0.94.
Sequence GAATGCTGGG has a switch fluorescence ratio of 1.03.
Sequence GAATGGATTA has a switch fluorescence ratio of 1.01.
For GAATGTAGAT, the switch fluorescence ratio was 0.988.
GAATGTGAAG was tested, and the switch fluorescence ratio was 1.03.
For GAATTAAGGG, the switch fluorescence ratio was 1.01.
GAATTAATTA was tested, and the switch fluorescence ratio was 1.02.
GAATTACATC gave a switch fluorescence ratio of 1.03.
